SMILES strings stand for the structures. Screen size: about 310,000 compounds; about 2,200 (0.71%) showed an effect of 50% or more. Effects have a minus sign here. The list shows a part of the results.

Chain of human ether-à-go-go-related gene (hERG) potassium channel (Q12809 whole entry, looked up): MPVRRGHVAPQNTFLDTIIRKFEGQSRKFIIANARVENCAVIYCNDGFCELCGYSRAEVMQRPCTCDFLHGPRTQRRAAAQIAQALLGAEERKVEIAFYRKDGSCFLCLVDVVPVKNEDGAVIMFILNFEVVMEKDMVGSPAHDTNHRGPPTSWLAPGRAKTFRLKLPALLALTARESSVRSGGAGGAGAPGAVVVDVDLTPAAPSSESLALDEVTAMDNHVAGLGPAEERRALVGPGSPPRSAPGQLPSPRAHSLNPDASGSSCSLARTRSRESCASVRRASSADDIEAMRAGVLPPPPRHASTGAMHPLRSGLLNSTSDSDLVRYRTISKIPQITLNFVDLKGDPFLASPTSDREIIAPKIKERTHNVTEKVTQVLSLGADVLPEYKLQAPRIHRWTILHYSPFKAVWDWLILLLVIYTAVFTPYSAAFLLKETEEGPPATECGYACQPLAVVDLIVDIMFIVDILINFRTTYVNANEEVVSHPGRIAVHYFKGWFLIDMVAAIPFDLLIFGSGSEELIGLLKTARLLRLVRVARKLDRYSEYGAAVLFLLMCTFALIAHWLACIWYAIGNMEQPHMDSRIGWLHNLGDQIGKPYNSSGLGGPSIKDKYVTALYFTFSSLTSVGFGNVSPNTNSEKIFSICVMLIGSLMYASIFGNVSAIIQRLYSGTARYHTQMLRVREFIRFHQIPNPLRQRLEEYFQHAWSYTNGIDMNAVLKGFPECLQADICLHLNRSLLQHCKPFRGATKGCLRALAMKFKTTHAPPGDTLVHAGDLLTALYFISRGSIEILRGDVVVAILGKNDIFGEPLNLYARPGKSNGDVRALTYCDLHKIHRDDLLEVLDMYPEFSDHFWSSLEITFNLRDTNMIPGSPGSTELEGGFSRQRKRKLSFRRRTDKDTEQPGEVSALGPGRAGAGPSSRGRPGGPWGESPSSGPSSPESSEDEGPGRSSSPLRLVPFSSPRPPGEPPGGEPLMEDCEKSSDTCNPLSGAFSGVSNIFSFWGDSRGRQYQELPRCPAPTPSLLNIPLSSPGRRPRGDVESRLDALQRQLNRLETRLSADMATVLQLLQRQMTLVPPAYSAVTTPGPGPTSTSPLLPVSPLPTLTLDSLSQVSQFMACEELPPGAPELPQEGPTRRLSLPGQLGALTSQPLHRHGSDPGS

This test has as its target human ether-à-go-go-related gene (hERG) potassium channel (human, UniProt Q12809). Put plainly: primary screen, population patch clamp on CHO cells stably expressing hERG.
Consider `CC(C)[C@H](NC(=O)c1ccccc1)C(=O)OCC(=O)Nc1ccc2c(c1)OCCO2`, for which the “hERG current change (%, negative = inhibition) at 1uM” value is recorded as -4.16%. With `CC1=C(C(=O)Nc2ccccn2)C(c2ccc(Cl)cc2Cl)NC(=S)N1` (centres unmarked) the figure was 2.95%; with `COc1ccc2cc(C(C)C(=O)OC(C)C)ccc2c1` (centres unmarked), 14.6%; with `Cc1nc2cc(F)ccc2n1C1CCN(Cc2nnnn2CCc2ccccc2)CC1.Cl`, -21.7%. Turning to `CC(SCc1cc(=O)n2c([nH]c3ccccc32)c1C#N)C(=O)O` (centres unmarked), the “hERG current change (%, negative = inhibition) at 1uM” value is reported as 18%. Consider `O=C(NCCc1c[nH]c2ccccc12)c1ccc(Cl)cc1`, for which the “hERG current change (%, negative = inhibition) at 1uM” value is given as -3.43%. With `CC(=O)Nc1ccccc1C(=O)C(=O)Nc1cccc(C(=O)NCc2ccc(C)cc2)c1`, the “hERG current change (%, negative = inhibition) at 1uM” value amounted to 6.21%. For the compound `Cc1ccc(-c2nc3s/c(=C\c4ccco4)c(=O)n3n2)cc1`, the “hERG current change (%, negative = inhibition) at 1uM” value is listed as 5.53%. For `COc1ccccc1NC(=O)CCC(=O)Nc1nnc(C2CCCCC2)s1`, the “hERG current change (%, negative = inhibition) at 1uM” value came out at 10.7%. With `O=C(N/N=C/c1ccccc1OC(F)F)NC1CCCCC1` the figure was 18.2%; with `Cc1ccc(/C=N/NC(=O)c2cc3ccccc3cc2O)o1`, 9.58%. For the compound `C=CCn1cccc(C(=O)Nc2ccc(C)c(C)c2)c1=O`, the “hERG current change (%, negative = inhibition) at 1uM” value is on record as -24.1%. `S=c1[nH]nc(C2COc3ccccc3O2)o1` (centres unmarked): the “hERG current change (%, negative = inhibition) at 1uM” value is reported as -7.88%.

For `CCOc1ccc(N=C2SC(C(=O)O)CC(=O)N2C)cc1` (centres unmarked), the “hERG current change (%, negative = inhibition) at 1uM” value is reported as 8.33%.

For the compound `CCCNC(=O)CCn1nc(-c2ccc(C)cc2)c2ccccc2c1=O`, the “hERG current change (%, negative = inhibition) at 1uM” value worked out at 9.81%. Then `COc1ccc2c(=O)c3c(=O)n(-c4ccc(C)cc4)c(-c4ccccc4)nc3oc2c1`, with 15.3%; and `CCC(C)[C@H](NC(=O)Nc1ccccc1F)C(=O)O` (some centres unmarked), with 8.49%. On to `CC1CC(C)CN(CCCNC(=O)Cn2ncn3cccc3c2=O)C1` (centres unmarked), for which the “hERG current change (%, negative = inhibition) at 1uM” value is on record as -0.368%. As for `CCOC(=O)N1CCN(S(=O)(=O)c2ccc(OC)c(Br)c2)CC1`, the “hERG current change (%, negative = inhibition) at 1uM” value turned out to be 5.8%. As to `CN(C)N1C(N)=C(C#N)C(c2cccc(Cl)c2)C2=C1CCCC2=O` (centres unmarked), the “hERG current change (%, negative = inhibition) at 1uM” value is 7.91%. Turning to `Cc1ccc(C)c(NC(NC(=O)c2ccccn2)C(Cl)(Cl)Cl)c1` (centres unmarked), the “hERG current change (%, negative = inhibition) at 1uM” value is on record as 10.3%. As for `Cl.Fc1ccc(C(c2nnnn2C2CCCC2)N2CCN(Cc3ccncc3)CC2)cc1` (centres unmarked), the “hERG current change (%, negative = inhibition) at 1uM” value is recorded as -2.22%. In the case of `CNC(=S)N(CCc1c(C)[nH]c2ccc(C)cc12)Cc1cccnc1`, the “hERG current change (%, negative = inhibition) at 1uM” value is listed as -5.65%. On to `C#CCOCCOCCOCCNc1nc(N2CCN(C(=O)CCCCCCCCCCNC(=O)[C@H](CCCCN)n3cc(C[C@@H](C)CC)nn3)CC2)nc(N2CCN(C(=O)CCCCCCCCCCNC(=O)[C@@H]([C@H](C)O)n3cc(C)nn3)CC2)n1`, for which the “hERG current change (%, negative = inhibition) at 1uM” value is 9.17%. Take `CC1CCCC(C)N1CCCNC(=O)c1csc2c1CCCCC2` (centres unmarked): the “hERG current change (%, negative = inhibition) at 1uM” value was -13.5%.

As to `Cc1cc[n+](CC(=O)c2ccc(NC(=O)c3ccccc3)cc2)c2ccccc12.[Br-]`, the “hERG current change (%, negative = inhibition) at 1uM” value stood at 13%.

`COC(=O)c1ccc(-c2c(-c3ccccc3)ncc3cc(F)ccc23)cc1`: the “hERG current change (%, negative = inhibition) at 1uM” value was 13.3%. With `COc1cccc(C(=O)Nc2ncc3c(n2)CC(C)CC3=O)c1` (centres unmarked) the figure was 16.5%; with `CCOC(=O)c1[nH]nc(-c2c(O)cc(C)cc2O)c1-c1csc(C)n1`, 13.4%; with `Nc1nc2ccccc2n1CCN1CCCC1`, 9.69%. Turning to `Cc1cnc(C(=O)Nc2ccccc2C(=O)N2CCOCC2)cn1`, the “hERG current change (%, negative = inhibition) at 1uM” value came to 14.9%.

Take `NS(=O)(=O)c1ccc(CNS(=O)(=O)c2cccc3nonc23)cc1`: the “hERG current change (%, negative = inhibition) at 1uM” value came out at 15.7%. As to `COc1ccc(NC(=O)CNC(=O)Cn2ccc3ccccc3c2=O)c(OC)c1`, the “hERG current change (%, negative = inhibition) at 1uM” value came out at 13.3%. Turning to `CCc1nc(SCC(=O)c2ccc(Cl)s2)c2oc3ccccc3c2n1`, the “hERG current change (%, negative = inhibition) at 1uM” value turned out to be 9.25%.

Take `CCCCC#Cc1ccccc1CC(=O)Nc1ccccc1`: the “hERG current change (%, negative = inhibition) at 1uM” value is listed as -4.69%. Consider `NC(=O)C(=O)N/N=C/c1c[nH]c2ccc(Br)cc12`, for which the “hERG current change (%, negative = inhibition) at 1uM” value is given as 0.718%. `COc1cccc(C(c2nnnn2Cc2ccco2)N2CCN(c3cccc(C)c3C)CC2)c1OC` (centres unmarked): the “hERG current change (%, negative = inhibition) at 1uM” value is on record as -0.822%. Regarding `CC(C)NC(=O)CCCc1cn(C)c2ccccc12`, the “hERG current change (%, negative = inhibition) at 1uM” value stood at 17.9%. With `O=C(NC(Cc1c[nH]c2ccccc12)C(=O)N/N=C/c1ccc(Br)cc1)c1cccs1` (centres unmarked), the “hERG current change (%, negative = inhibition) at 1uM” value worked out at 12.5%. With `COc1ccc(/C=C2\SC(=O)N(CCCC(=O)Nc3ccc(C(=O)O)cc3)C2=O)cc1OC` the figure was 10.3%; with `O=C(COC(=O)c1ccc(Cl)c(S(=O)(=O)N2CCCC2)c1)NCc1cccs1`, 3.43%; with `COc1ccc(C(=O)NNC(=O)c2cnccn2)cc1[N+](=O)[O-]`, 7.9%.

Turning to `COC(=O)c1ccc2nc(NC(=O)CN3C(=O)CCC3=O)sc2c1`, the “hERG current change (%, negative = inhibition) at 1uM” value is 14.3%. Turning to `Fc1ccc(-n2c(-c3ccc4c(c3)OCO4)n[nH]c2=S)cc1Cl`, the “hERG current change (%, negative = inhibition) at 1uM” value is on record as 8.94%.

The record behind these values is PMC4336329 (PLoS ONE, 2015).
